# Data: the supplement of paper PMC4604168 (melanoma cell lines)
# This is one part of the list. Single values are uncertain, as repeats are few or missing.
# System: SkMel28
# Assay: cell count relative to DMSO control; melanoma cells; higher = more viable cells
# Settings: library dose: standard library concentration; 72 h
# 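Also: cells treated in 1,536-well plates, then fixed and DAPI-stained, with nuclei counted from automated high-throughput microscope images.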
row,Structure (SMILES),cell count
1,"CC1(C)CCC(c2ccc(Cl)cc2)=C(CN2CCN(c3ccc(C(=O)NS(=O)(=O)c4ccc(N[C@H](CCN5CCOCC5)CSc5ccccc5)c(S(=O)(=O)C(F)(F)F)c4)cc3)CC2)C1 + NCC(=O)Nc1ccc(-n2nc(C(F)(F)F)cc2-c2ccc3c(ccc4ccccc43)c2)cc1 [OSU03012] (first compound 2 µM, partner dose 5 µM)",5.7%
2,"CC1(C)CCC(c2ccc(Cl)cc2)=C(CN2CCN(c3ccc(C(=O)NS(=O)(=O)c4ccc(N[C@H](CCN5CCOCC5)CSc5ccccc5)c(S(=O)(=O)C(F)(F)F)c4)cc3)CC2)C1 + Cc1cc(Nc2cc(N3CCN(C)CC3)nc(/C=C/c3ccccc3)n2)n[nH]1 [ENMD2076] (first compound 2 µM, partner dose 0.2 µM)",69.5%
3,"Cc1ccc(Nc2nccc(N(C)c3ccc4c(C)n(C)nc4c3)n2)cc1S(N)(=O)=O [Pazopanib] + c1cc(-c2cnn3cc(-c4ccc(OCCN5CCCCC5)cc4)cnc23)ccn1 [Dorsomorphin] (first compound 2 µM, partner dose 2 µM)",67.1%
4,"CC1(C)CCC(c2ccc(Cl)cc2)=C(CN2CCN(c3ccc(C(=O)NS(=O)(=O)c4ccc(N[C@H](CCN5CCOCC5)CSc5ccccc5)c(S(=O)(=O)C(F)(F)F)c4)cc3)CC2)C1 + CCc1ccc(CCOc2ccc(CC3SC(=O)NC3=O)cc2)nc1 [pioglitazone] (first compound 2 µM, partner dose 10 µM)",79.3%
5,"Cc1ccc(Nc2nccc(N(C)c3ccc4c(C)n(C)nc4c3)n2)cc1S(N)(=O)=O [Pazopanib] + COC(=O)c1sccc1S(=O)(=O)Nc1ccc(Nc2ccccc2)cc1OC [GSK0660] (first compound 2 µM, partner dose 5 µM)",64.2%
6,"Cc1ccc(Nc2nccc(N(C)c3ccc4c(C)n(C)nc4c3)n2)cc1S(N)(=O)=O [Pazopanib] + C#Cc1cccc(Nc2ncnc3cc(OCCOC)c(OCCOC)cc23)c1 [erlotinib] (first compound 2 µM, partner dose 4 µM)",64.4%
7,"O=C(/C=C/c1cccnc1)NCCCCC1CCN(C(=O)c2ccccc2)CC1 + CN(NC(=O)CC(=O)NN(C)C(=S)c1ccccc1)C(=S)c1ccccc1 [STA4783] (first compound 0.05 µM, partner dose 0.03 µM)",7.54%
8,"CC1(C)CCC(c2ccc(Cl)cc2)=C(CN2CCN(c3ccc(C(=O)NS(=O)(=O)c4ccc(N[C@H](CCN5CCOCC5)CSc5ccccc5)c(S(=O)(=O)C(F)(F)F)c4)cc3)CC2)C1 + O=C(O)C(=O)Nc1sc2c(c1C(=O)O)CCNC2 [TCS401] (first compound 2 µM, partner dose 8.33333 µM)",69.3%
9,"Cc1ccc(Nc2nccc(N(C)c3ccc4c(C)n(C)nc4c3)n2)cc1S(N)(=O)=O [Pazopanib] + O=S(=O)(c1ccccc1)N(CC(F)(F)F)c1ccc(C(O)(C(F)(F)F)C(F)(F)F)cc1 [T0901317] (first compound 2 µM, partner dose 7 µM)",87.2%
10,"O=C(/C=C/c1cccnc1)NCCCCC1CCN(C(=O)c2ccccc2)CC1 + COc1ccc(COc2ccc(Cc3cnc(N)nc3N)cc2OC)cc1 [GW2580] (first compound 0.05 µM, partner dose 5 µM)",66.2%
11,"Cc1ccc(Nc2nccc(N(C)c3ccc4c(C)n(C)nc4c3)n2)cc1S(N)(=O)=O [Pazopanib] + CCCCCCCCCCCC1=C(O)C(=O)C=C(O)C1=O [Embelin] (first compound 2 µM, partner dose 6 µM)",75.9%
12,"Cc1ccc(Nc2nccc(N(C)c3ccc4c(C)n(C)nc4c3)n2)cc1S(N)(=O)=O [Pazopanib] + O=c1cc(-c2cccc3c2Sc2ccccc2S3)oc(N2CCOCC2)c1 [KU55933] (first compound 2 µM, partner dose 5 µM)",94.4%
13,"O=C(/C=C/c1cccnc1)NCCCCC1CCN(C(=O)c2ccccc2)CC1 + O=C(Nc1cccc(Cl)c1)Nc1ncc(CCNc2ncnc3ccsc23)s1 [SNS314] (first compound 0.05 µM, partner dose 0.004 µM)",57.5%
14,"O=C(/C=C/c1cccnc1)NCCCCC1CCN(C(=O)c2ccccc2)CC1 + COc1cc(N2CCC(N3CCN(C)CC3)CC2)ccc1Nc1ncc(Cl)c(Nc2ccccc2S(=O)(=O)C(C)C)n1 [NVP-TAE684] (first compound 0.05 µM, partner dose 0.4 µM)",71.6%
15,"Cc1ccc(Nc2nccc(N(C)c3ccc4c(C)n(C)nc4c3)n2)cc1S(N)(=O)=O [Pazopanib] + COc1cc2ncnc(Nc3ccc(Oc4ccccc4)cc3)c2cc1OC [SrcI1] (first compound 2 µM, partner dose 10 µM)",52.2%
16,"Cc1ccc(Nc2nccc(N(C)c3ccc4c(C)n(C)nc4c3)n2)cc1S(N)(=O)=O [Pazopanib] + OCCn1cc(-c2cnc3nnn(Cc4ccc5ncccc5c4)c3n2)cn1 [PF04217903] (first compound 2 µM, partner dose 5 µM)",102%
17,"Cc1ccc(Nc2nccc(N(C)c3ccc4c(C)n(C)nc4c3)n2)cc1S(N)(=O)=O [Pazopanib] + Cn1cc(/C=C2\C(=O)Nc3cccnc32)c2ccccc21 [GW441756] (first compound 2 µM, partner dose 2 µM)",78.1%
18,"Cc1ccc(Nc2nccc(N(C)c3ccc4c(C)n(C)nc4c3)n2)cc1S(N)(=O)=O [Pazopanib] + OCc1c[nH]c2ccccc12 [Indole-3-carbinol] (first compound 2 µM, partner dose 4 µM)",112%
19,"CC1(C)CCC(c2ccc(Cl)cc2)=C(CN2CCN(c3ccc(C(=O)NS(=O)(=O)c4ccc(N[C@H](CCN5CCOCC5)CSc5ccccc5)c(S(=O)(=O)C(F)(F)F)c4)cc3)CC2)C1 + COc1cc2c(Oc3ccc4[nH]c(C)cc4c3F)ncnc2cc1OCCCN1CCCC1 [cediranib] (first compound 2 µM, partner dose 2 µM)",79.4%
20,"CC1(C)CCC(c2ccc(Cl)cc2)=C(CN2CCN(c3ccc(C(=O)NS(=O)(=O)c4ccc(N[C@H](CCN5CCOCC5)CSc5ccccc5)c(S(=O)(=O)C(F)(F)F)c4)cc3)CC2)C1 + COc1cc(N2CCC(N3CCN(C)CC3)CC2)ccc1Nc1ncc(Cl)c(Nc2ccccc2S(=O)(=O)C(C)C)n1 [NVP-TAE684] (first compound 2 µM, partner dose 0.4 µM)",58.5%
21,"CC1(C)CCC(c2ccc(Cl)cc2)=C(CN2CCN(c3ccc(C(=O)NS(=O)(=O)c4ccc(N[C@H](CCN5CCOCC5)CSc5ccccc5)c(S(=O)(=O)C(F)(F)F)c4)cc3)CC2)C1 + Cn1cc(/C=C2\C(=O)Nc3cccnc32)c2ccccc21 [GW441756] (first compound 2 µM, partner dose 2 µM)",77.6%
22,"O=C(/C=C/c1cccnc1)NCCCCC1CCN(C(=O)c2ccccc2)CC1 + COc1cc2ncnc(Nc3ccc(Oc4ccccc4)cc3)c2cc1OC [SrcI1] (first compound 0.05 µM, partner dose 10 µM)",47.5%
23,"O=C(/C=C/c1cccnc1)NCCCCC1CCN(C(=O)c2ccccc2)CC1 + O=S(=O)(c1ccccc1)N(CC(F)(F)F)c1ccc(C(O)(C(F)(F)F)C(F)(F)F)cc1 [T0901317] (first compound 0.05 µM, partner dose 7 µM)",62.8%
24,"CC1(C)CCC(c2ccc(Cl)cc2)=C(CN2CCN(c3ccc(C(=O)NS(=O)(=O)c4ccc(N[C@H](CCN5CCOCC5)CSc5ccccc5)c(S(=O)(=O)C(F)(F)F)c4)cc3)CC2)C1 + COC(=O)c1sccc1S(=O)(=O)Nc1ccc(Nc2ccccc2)cc1OC [GSK0660] (first compound 2 µM, partner dose 5 µM)",76.5%
25,"CC1(C)CCC(c2ccc(Cl)cc2)=C(CN2CCN(c3ccc(C(=O)NS(=O)(=O)c4ccc(N[C@H](CCN5CCOCC5)CSc5ccccc5)c(S(=O)(=O)C(F)(F)F)c4)cc3)CC2)C1 + c1cc(-c2cnn3cc(-c4ccc(OCCN5CCCCC5)cc4)cnc23)ccn1 [Dorsomorphin] (first compound 2 µM, partner dose 2 µM)",88.5%
26,"Cc1ccc(Nc2nccc(N(C)c3ccc4c(C)n(C)nc4c3)n2)cc1S(N)(=O)=O [Pazopanib] + CO[C@@H]1[C@H](N(C)C(=O)c2ccccc2)C[C@H]2O[C@]1(C)n1c3ccccc3c3c4c(c5c6ccccc6n2c5c31)C(=O)NC4 [Midostaurin] (first compound 2 µM, partner dose 0.4 µM)",47.5%
27,"O=C(/C=C/c1cccnc1)NCCCCC1CCN(C(=O)c2ccccc2)CC1 + CO[C@@H]1[C@H](N(C)C(=O)c2ccccc2)C[C@H]2O[C@]1(C)n1c3ccccc3c3c4c(c5c6ccccc6n2c5c31)C(=O)NC4 [Midostaurin] (first compound 0.05 µM, partner dose 0.4 µM)",50.5%
28,"Cc1ccc(Nc2nccc(N(C)c3ccc4c(C)n(C)nc4c3)n2)cc1S(N)(=O)=O [Pazopanib] + Oc1nc(-c2ccc(C(F)(F)F)cc2)nc2c1CSCC2 [XAV939] (first compound 2 µM, partner dose 10 µM)",61%
29,"CC1(C)CCC(c2ccc(Cl)cc2)=C(CN2CCN(c3ccc(C(=O)NS(=O)(=O)c4ccc(N[C@H](CCN5CCOCC5)CSc5ccccc5)c(S(=O)(=O)C(F)(F)F)c4)cc3)CC2)C1 + Cc1ccc(Nc2nccc(N(C)c3ccc4c(C)n(C)nc4c3)n2)cc1S(N)(=O)=O [Pazopanib] (first compound 2 µM, partner dose 2 µM)",71.8%
